T1: UNK ZnF1-6 (called full-length) (human, UniProt Q9C0B0 30-357)
T1 sequence: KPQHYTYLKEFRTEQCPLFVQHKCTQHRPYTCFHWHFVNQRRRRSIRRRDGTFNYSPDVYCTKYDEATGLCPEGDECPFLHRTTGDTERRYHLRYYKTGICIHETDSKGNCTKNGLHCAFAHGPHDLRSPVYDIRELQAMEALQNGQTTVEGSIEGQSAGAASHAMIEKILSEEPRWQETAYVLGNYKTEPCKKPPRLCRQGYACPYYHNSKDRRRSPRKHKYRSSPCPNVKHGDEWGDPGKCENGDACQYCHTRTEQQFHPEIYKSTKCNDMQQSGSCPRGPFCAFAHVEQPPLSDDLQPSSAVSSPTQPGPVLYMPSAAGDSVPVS

B1: chr5:16781720:16781826:-|CDS|ENSG00000145555|unk|FALSE|bound_elsewhere (ssRNA)
RNA: GGGAGUUCUACAGUCCGACGAUCCUUCACAGCCCCAUCAUGGAAGCUUUCGGCAAUGCGAAGACCGUGUACAACAACAACUCUAGUCGCUUUGGGAAGUUUGUUCAGCUGAACAUCUGUCAGAAAGGAAAUAUUCAGGGCGGGCAACAGAGGAUUGAGCAUCA
B2: ENSG00000070961:be:win_551|CDS|ENSG00000070961|bound_else_gene|NA|bound_elsewhere_windowed (ssRNA)
RNA: GGGAGUUCUACAGUCCGACGAUCUGCAGAGCCGAAUUGAACAAGAACAGAAGUUCACUGUCAUCAGGGGUGGUCAGGUCAUUCAGAUACCUGUAGCUGACAUUACUGUUGGAGAUAUUGCUCAAGUGAAAUAUGGUGAUCUUCCAACAGAGGAUUGAGCAUCA
B3: chr5:159158860:159158961:-|CDS|ENSG00000145860|msi1|FALSE|bound_elsewhere (ssRNA)
RNA: GGGAGUUCUACAGUCCGACGAUCCCAGGAGACCUGCCCUCUGUGCCACUGCCAUCUGAAAAACUCCUCCCAGCUUCCAGGAUUAGGAACUGAGCCAGUUCUACAGCCUCAUGCUGGAGCUGAGCAAAACGUCAUGUUUCAGGACAACAGAGGAUUGAGCAUCA
B4: chr3:69105919:69106020:+|3pUTR|ENSG00000144746|msi1|total|mutant (ssRNA)
RNA: GGGAGUUCUACAGUCCGACGAUCGUGCUGCUUCUGAUUUUUCUUGCAUUUUAAAUUCUCAGCCAACCUACAGCCAUGAUCUUCCGCACAGUGAUAUCACCAUGACUUCACAGACAUGGUCCCGAAUCUGUACCCUUACCCACACAACAGAGGAUUGAGCAUCA
B5: ENSG00000169057:stop:overlap|stop_codon|ENSG00000169057|stop_codon|NA|stop_codon (ssRNA)
RNA: GGGAGUUCUACAGUCCGACGAUCUCAAGCCUGUCGUUCCAGGACCCAGGAGGGAGAAGCAGCUGCCAGGGGAAGUCUCUUCGUAGGCGGAGGUCAGGAGUCCAAGAGGAGUGAGCAGAGUCACAGAAGCCUCUUAAAGCCUCUCAACAGAGGAUUGAGCAUCA
B6: chr4:75597091:75597192:-|CDS|ENSG00000138769|unk|FALSE|unique (ssRNA)
RNA: GGGAGUUCUACAGUCCGACGAUCUAUAAACUAUUUAAAAUAAAAGGCUCAAAAAUUGAUGGAGAAAAAGCUGAAAAAGGCAAUAGAGCUUCAAAUGCCAGCUGUCUCCAUGACAGUAGGACAAGCCACAACAAAAUAGUGCCUCAACAGAGGAUUGAGCAUCA
B7: ENSG00000174437:stop:overlap|stop_codon|ENSG00000174437|stop_codon|NA|stop_codon (ssRNA)
RNA: GGGAGUUCUACAGUCCGACGAUCAUGAGACGCUCAAGUUUGUGGCCCGCAACUACCUGGAACCUGUUCUUAGCUCAGAACUUUAGUUGUACUCUGCUUGAGGGGAAGAAGGCUCCUGCUCUGCUGUCAAUACUGGAGUAACCGCAACAGAGGAUUGAGCAUCA
B8: chr7:124031896:124032004:-|CDS|ENSG00000234224|unk|FALSE|unique (ssRNA)
RNA: GGGAGUUCUACAGUCCGACGAUCUACCCGCUCAAUUUUAUGGGCCUCAUCACCCUGAUGUAUUUACCUGGCUGGAUAUUCCUUAGUGUGUACCAGGACCUAAUUUCCAACGUGUUGUGGAGGGUGCAGUACGUACCAGCUAACCAACAGAGGAUUGAGCAUCA
B9: chr4:54297753:54297953:+|3pUTR|ENSG00000134853|msi1|total|mutant (ssRNA)
RNA: GGGAGUUCUACAGUCCGACGAUCUUUUUAUGAUGACAAUCAAAGCCGGCCUGAGAAACACUAUUUGUGACUUUUUAAACGAUCCGUGAUGUCCUUAAAAUGUGGUCUGCCAAUCUGUACAAAAUGGUCCUAUUUUUGUGAAGACAACAGAGGAUUGAGCAUCA
B10: chr16:18841627:18841728:-|CDS|ENSG00000157106|msi1|total|mutant (ssRNA)
RNA: GGGAGUUCUACAGUCCGACGAUCUACAAUUAAUCGCCAAGAAACACCCCGGUUCCAUGCUCGACACUAUUCUGUAACACCACCCGGAACAAGAUCAGGACUAAUCCAGUGGGCCGAUGGAGCCACACCCUUAUUUGGUCUUUACAACAGAGGAUUGAGCAUCA
B11: chr22:21448335:21448436:+|3pUTR|ENSG00000169635|unk|FALSE|bound_elsewhere (ssRNA)
RNA: GGGAGUUCUACAGUCCGACGAUCGCAGUCCUGGCCCCCGGCCACUGUCUCGGGGCCCACCUCUCGCCCCUCAUCUUGGUAAUUAGCCAGCCUCAGAUACUUCUGUGGGCCCUGAAGUGGGCUCUCAAGGUCAGACCAAGGUUGCAACAGAGGAUUGAGCAUCA
B12: chr7:108502517:108502634:-|CDS|ENSG00000135241|unk|total|mutant (ssRNA)
RNA: GGGAGUUCUACAGUCCGACGAUCAUUAUUCCAUAUUUAUUACGACUGAGACAAAUUAAGGAUGAAACUCUUCAGGCUGCAGUCCGAGAAAUUUUGGCCCUAAUUGGCUAUGUGGAUCCAGUGAAAGGGAGAGGAAUCCGAAUUCAACAGAGGAUUGAGCAUCA
B13: chr9:128633378:128633479:+|3pUTR|ENSG00000197694|msi1|total|mutant (ssRNA)
RNA: GGGAGUUCUACAGUCCGACGAUCCUUGCUGCAUGUCCGCUCCUCUGUGUGCUCUCACUUUCCACUGUAACCUUAAGCCUGCUCCGCUUGGAAUAAGACUCCGGAGAAAAUGGUGCUUCACUAACCCGCUUCCGGUCCAGUCACCAACAGAGGAUUGAGCAUCA
B14: chr5:6668475:6668576:+|3pUTR|ENSG00000145545|unk|FALSE|unique (ssRNA)
RNA: GGGAGUUCUACAGUCCGACGAUCAUUUUUUCUAAUUUCAAAUUUACCUCUUUUGGCUAUGUCUUGCCAAGUGUGUAUGAGACUAGACUUUACAACUGUCUUUGAUGGCAUUUUCAGAACAAUAAAUGUCACAAUCCCUUCUAUCAACAGAGGAUUGAGCAUCA
B15: chr4:57031156:57031257:-|3pUTR|ENSG00000163453|msi1|total|mutant (ssRNA)
RNA: GGGAGUUCUACAGUCCGACGAUCAUAACUACAUUACCUGUUCUUGCCUAAUAAGUUUCUUUUAAUCCAAUCCACUAACACUUCCGUUAUAUUCACUGGUUUUACACAGAGAAAUACAAAAUAAAGAUCACACAUCAAGACUAUCAACAGAGGAUUGAGCAUCA
B16: chr9:6012816:6012917:-|CDS|ENSG00000137040|unk|total|mutant (ssRNA)
RNA: GGGAGUUCUACAGUCCGACGAUCGGGAUUGUGCAUAUUUGAUGACAUCACCGAGCACUGCAGUCCAACUUCAUUUAAAUAUGCCGAAUAUUUUCGGUGGCCAAUGCUACUAAAUAUGCGAGAUAACAACCCUGAAGUCAGGCACAACAGAGGAUUGAGCAUCA
B17: ENSG00000136451:be:win_1651|3pUTR|ENSG00000136451|bound_else_gene|NA|bound_elsewhere_windowed (ssRNA)
RNA: GGGAGUUCUACAGUCCGACGAUCAUGAAAUUGGGAGAUUUUAUUACAUUAGUUAAUAAGAGUGUGGUAGCAUUUUUCUCCAAUUUGGCUGGGAUUAUUCAAAGUAGGGUGUGUAUGUAACUUAUCACUGGACCACUUUAGUUUCAACAGAGGAUUGAGCAUCA
B18: chr15:75657416:75657517:+|3pUTR|ENSG00000173548|msi1|FALSE|unique (ssRNA)
RNA: GGGAGUUCUACAGUCCGACGAUCCAUGGGUGCCCCUGGGAAAUUCCCCACUCCUUAGAAGUGGGGCACAGCAGGGGUGAGAAUAGAGUCAGGAGCCCUCGAGGCCAAGGCCUGGGCUGCCGGUCAGUCAGUGAAGGUCAGGCCCAACAGAGGAUUGAGCAUCA
B19: chr15:38484694:38484795:+|3pUTR|ENSG00000171262|unk|FALSE|unique (ssRNA)
RNA: GGGAGUUCUACAGUCCGACGAUCAUUAGAAAUAGUGUUCCAAAUAACAUACUUGAAUAUCAUCUUUGAAGUAAACACCAUGUUAGACUCCCUGGUGAUACCACUCUUGAAUUGGUUAAUAUGUAAGAACAUUGUUUUUUAUUACAACAGAGGAUUGAGCAUCA
B20: chr2:99394746:99394872:+|CDS|ENSG00000158417|unk|total|mutant (ssRNA)
RNA: GGGAGUUCUACAGUCCGACGAUCGAUGUGAGAAUUGAACGAGAUGCACAAGAAAUGGCUGACCGUUCCGGAGUCCGAAUUUUCCGUGCAGAAAUUAUUUAUCAUUUAUUUGAUGCCUUUACAAAAUACCGACAAGACUACAAGCAACAGAGGAUUGAGCAUCA
B21: chr1:152032676:152032810:-|CDS|ENSG00000163191|unk|total|mutant (ssRNA)
RNA: GGGAGUUCUACAGUCCGACGAUCGGACCCUGGUGUCCUUGACCGCAUGAUGAAGAAACUGGACACCAACAGUGAUGGUCAGCCCGAUUUCUCAGAAUUUCUUAAUCUGAUUGGUGGCCCCGCUAUGGCUUGCCAUGACUCCUUCAACAGAGGAUUGAGCAUCA
B22: chr6:111661451:111661552:-|3pUTR|ENSG00000010810|msi1|FALSE|bound_elsewhere (ssRNA)
RNA: GGGAGUUCUACAGUCCGACGAUCCUUUGGAAAAUGCAUUGUAUCGAUGUUAUGUAAAAGGCCAAACCUCUGUUCAGUGUAAAUAGUUACUCCAGUGCCAACAAUCCUAGUGCUUUCCUUUUUUAAAAAUGCAAAUCCUAUGUGCAACAGAGGAUUGAGCAUCA

This is one part of the list.

In this experiment the target is T1, UNK ZnF1-6 (called full-length). The experiment can be described thus: nsRBNS (natural sequence RNA bind-n-seq); RBNS binding buffer (assumed for nsRBNS): 25 mM Tris pH 7.5, 150 mM KCl, 3 mM MgCl2, 0.01% Triton X-100, 500 ug/ml BSA, 20 U/ml SUPERase-In, 4 C; UNK is unkempt and MSI1 is Musashi-1; names of the RNAs are library labels; protein concentration not given here; high values mean tight binding.
For B1, the binding signal was determined as 0.608 enrichment R.

B2: the binding signal was 0.514 enrichment R.

For B3, the binding signal was determined as 0.594 enrichment R.

With B4, the binding signal was found to be 0.514 enrichment R.

B5: the binding signal came to 1.39 enrichment R.

In turn, B6 came in with a binding signal of 0.593 enrichment R.

For the molecule B7, the binding signal worked out at 0.281 enrichment R.

Turning to B8, the binding signal was 0.648 enrichment R.

B9 returned a binding signal of 0.387 enrichment R.

For B10, the binding signal was 0.64 enrichment R.

Regarding B11, the binding signal turned out to be 0.765 enrichment R.

As for B12, the binding signal amounted to 0.74 enrichment R.

B13 showed a binding signal of 0.609 enrichment R.

B14: the binding signal was 0.488 enrichment R.

As for B15, the binding signal amounted to 0.789 enrichment R.

On to B16, for which the binding signal was found to be 0.387 enrichment R.

For the molecule B17, the binding signal is 0.914 enrichment R.

For B18, the binding signal stood at 0.59 enrichment R.

As to B19, the binding signal stood at 1.09 enrichment R.

For B20, the binding signal was 0.647 enrichment R.

Regarding B21, the binding signal amounted to 0.427 enrichment R.

B22 registered a binding signal of 1.11 enrichment R.

The values are drawn from publication PMC12136788.
